# The other results are listed elsewhere or left out.
# Key:
# Assay in all cases: glycan array binding signal (z-score within array); higher = stronger binding
# Conditions in all cases: glycan notation: IUPAC condensed, linker removed
# [1] = target: Gal(b1-4)GalNAc(b1-3)[Fuc(a1-2)]Gal(b1-4)GlcNAc
# Procedure, shortened: (§1)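 Arrays were curated from the Consortium for Functional Glycomics database, 3228 in total, and kept only where the protein sequence was available. Binding is expressed as a within-array Z-score. This score was averaged across arrays of the same protein sequence at different concentrations or buffers and across linkers, and negative values can be read as non-binding.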
# Gal(b1-4)Glc = target: Gal(b1-4)Glc
# Procedure, shortened: as §1
# Gal(b1-4)Glc6S = target: Gal(b1-4)Glc6S
# Procedure, shortened: as §1
# Gal(b1-4)GlcNAc = target: Gal(b1-4)GlcNAc
# Procedure, shortened: as §1
# [2] = target: Gal(b1-4)GlcNAc(a1-6)Gal(b1-4)GlcNAc
# Procedure, shortened: as §1
# Gal(b1-4)GlcNAc(b1-2)Man = target: Gal(b1-4)GlcNAc(b1-2)Man
# Procedure, shortened: as §1
# [3] = target: Gal(b1-4)GlcNAc(b1-2)Man(a1-3)Man(b1-4)GlcNAc(b1-4)GlcNAc
# Procedure, shortened: as §1
# [4] = target: Gal(b1-4)GlcNAc(b1-2)Man(a1-3)[Gal(b1-4)GlcNAc(b1-2)Man(a1-6)]Man(b1-4)GlcNAc(b1-4)GlcNAc
# Procedure, shortened: as §1
# [5] = target: Gal(b1-4)GlcNAc(b1-2)Man(a1-3)[Gal(b1-4)GlcNAc(b1-2)Man(a1-6)]Man(b1-4)GlcNAc(b1-4)[Fuc(a1-6)]GlcNAc
# Procedure, shortened: as §1
# [6] = target: Gal(b1-4)GlcNAc(b1-2)Man(a1-3)[Gal(b1-4)GlcNAc(b1-2)Man(a1-6)][Gal(b1-4)GlcNAc(b1-4)]Man(b1-4)GlcNAc(b1-4)[Fuc(a1-6)]GlcNAc
# Procedure, shortened: as §1
# [7] = target: Gal(b1-4)GlcNAc(b1-2)Man(a1-3)[Gal(b1-4)GlcNAc(b1-2)Man(a1-6)][GlcNAc(b1-4)]Man(b1-4)GlcNAc(b1-4)[Fuc(a1-6)]GlcNAc
# Procedure, shortened: as §1
# [8] = target: Gal(b1-4)GlcNAc(b1-2)Man(a1-3)[GlcNAc(b1-2)Man(a1-6)]Man(b1-4)GlcNAc(b1-4)GlcNAc
# Procedure, shortened: as §1
# [9] = target: Gal(b1-4)GlcNAc(b1-2)Man(a1-3)[GlcNAc(b1-4)][Gal(b1-4)GlcNAc(b1-2)Man(a1-6)]Man(b1-4)GlcNAc(b1-4)GlcNAc
# Procedure, shortened: as §1
# [10] = target: Gal(b1-4)GlcNAc(b1-2)Man(a1-3)[Man(a1-6)]Man(b1-4)GlcNAc(b1-4)GlcNAc
# Procedure, shortened: as §1
# [11] = target: Gal(b1-4)GlcNAc(b1-2)Man(a1-6)Man(b1-4)GlcNAc(b1-4)GlcNAc
# Procedure, shortened: as §1
# [12] = target: Gal(b1-4)GlcNAc(b1-2)Man(a1-6)[GlcNAc(b1-2)Man(a1-3)]Man(b1-4)GlcNAc(b1-4)GlcNAc
# Procedure, shortened: as §1
# [13] = target: Gal(b1-4)GlcNAc(b1-2)Man(a1-6)[Man(a1-3)]Man(b1-4)GlcNAc(b1-4)GlcNAc
# Procedure, shortened: as §1
# [14] = target: Gal(b1-4)GlcNAc(b1-2)[Gal(b1-4)GlcNAc(b1-4)]Man(a1-3)[Gal(b1-4)GlcNAc(b1-2)Man(a1-6)]Man(b1-4)GlcNAc(b1-4)GlcNAc
# Procedure, shortened: as §1
# [15] = target: Gal(b1-4)GlcNAc(b1-2)[Gal(b1-4)GlcNAc(b1-4)]Man(a1-3)[Gal(b1-4)GlcNAc(b1-2)[Gal(b1-4)GlcNAc(b1-6)]Man(a1-6)]Man(b1-4)GlcNAc(b1-4)GlcNAc
# Procedure, shortened: as §1
# [16] = target: Gal(b1-4)GlcNAc(b1-2)[Gal(b1-4)GlcNAc(b1-4)]Man(a1-3)[GlcNAc(b1-4)][Gal(b1-4)GlcNAc(b1-2)Man(a1-6)]Man(b1-4)GlcNAc(b1-4)GlcNAc
# Procedure, shortened: as §1
# [17] = target: Gal(b1-4)GlcNAc(b1-2)[Gal(b1-4)GlcNAc(b1-4)]Man(a1-3)[GlcNAc(b1-4)][Gal(b1-4)GlcNAc(b1-2)[Gal(b1-4)GlcNAc(b1-6)]Man(a1-6)]Man(b1-4)GlcNAc(b1-4)GlcNAc
# Procedure, shortened: as §1
# [18] = target: Gal(b1-4)GlcNAc(b1-2)[Gal(b1-4)GlcNAc(b1-6)]Man(a1-6)[Gal(b1-4)GlcNAc(b1-2)Man(a1-3)]Man(b1-4)GlcNAc(b1-4)GlcNAc
# Procedure, shortened: as §1
# [19] = target: Gal(b1-4)GlcNAc(b1-2)[Gal(b1-4)GlcNAc(b1-6)]Man(a1-6)[Gal(b1-4)GlcNAc(b1-2)Man(a1-3)]Man(b1-4)GlcNAc(b1-4)[Fuc(a1-6)]GlcNAc
# Procedure, shortened: as §1
# [20] = target: Gal(b1-4)GlcNAc(b1-2)[Gal(b1-4)GlcNAc(b1-6)]Man(a1-6)[GlcNAc(b1-4)][Gal(b1-4)GlcNAc(b1-2)Man(a1-3)]Man(b1-4)GlcNAc(b1-4)GlcNAc
# Procedure, shortened: as §1
# [21] = target: Gal(b1-4)GlcNAc(b1-2)[Gal(b1-4)GlcNAc(b1-6)]Man(a1-6)[GlcNAc(b1-4)][Gal(b1-4)GlcNAc(b1-2)[Gal(b1-4)GlcNAc(b1-4)]Man(a1-3)]Man(b1-4)GlcNAc(b1-4)[Fuc(a1-6)]GlcNAc
# Procedure, shortened: as §1
# [22] = target: Gal(b1-4)GlcNAc(b1-3)Gal(b1-3)GalNAc
# Procedure, shortened: as §1
# [23] = target: Gal(b1-4)GlcNAc(b1-3)Gal(b1-3)GlcNAc
# Procedure, shortened: as §1
# [24] = target: Gal(b1-4)GlcNAc(b1-3)Gal(b1-4)Glc
# Procedure, shortened: as §1
# [25] = target: Gal(b1-4)GlcNAc(b1-3)Gal(b1-4)GlcNAc
# Procedure, shortened: as §1
# [26] = target: Gal(b1-4)GlcNAc(b1-3)Gal(b1-4)GlcNAc(b1-2)Man(a1-3)[Gal(b1-4)GlcNAc(b1-3)Gal(b1-4)GlcNAc(b1-2)Man(a1-6)]Man(b1-4)GlcNAc(b1-4)GlcNAc
# Procedure, shortened: as §1
binder,measurement,setting,value
CvGal2 (Crassostrea virginica) (protein) MGSSHHHHHHSSGLVPRGSHMRIREAGKRKDTTKVYQIPDGLFPGQQVMLRGRVPWGSKSFSINFSATPRMGEGDILFHLNPRPSEGVCIRNALLNGSWGAEEKWQPYFPFDDGRSFSVKIEVTNDAFRTFVNGRPFVDFLHRTDFRAGKYLTLREGAEYYDVIFQSKPNIPLTTAIHNGMRIGKTIRIRGMCTAQDGFAINFNDNRNNIYFHFNARPAQRTVVRNSYFGSWGNEETAISKEFPFYPFLYFYASFVCMEDKFAVYVNDEHFIDFAHRGNPNNISVLQIKGSVNVLDTECLEPMGEDAMTEVDSGLENGDLFVLNGLMTERGKTFAVNFLNGFTENDDIALHFNPRKSTGEVVLNSRYGGAWQSEEKVALPGVFWSNRPLQVKVETKRNKFKIYVNGVDLAKYKIRGNVEDVHAVQVKGDVFLLETLLLKRLMKPVWERLTGGIRPGTWVTLQGTPKKNWQQFVVNFALDDTLDGDIAFHFNVRRGARQVVRNHRQSGAWGREETVTPFFAFDSEATFEIVFFVKEEKFLIYFNGKLFFEFVHRVPVERITHIYMDGDCNFYEPEVVI,glycan array binding signal (z-score),[1],-0.333
same,glycan array binding signal (z-score),Gal(b1-4)Glc,-0.305
same,glycan array binding signal (z-score),Gal(b1-4)Glc6S,0.114
same,glycan array binding signal (z-score),Gal(b1-4)GlcNAc,-0.336
same,glycan array binding signal (z-score),[2],-0.325
same,glycan array binding signal (z-score),Gal(b1-4)GlcNAc(b1-2)Man,-0.318
same,glycan array binding signal (z-score),[3],-0.315
same,glycan array binding signal (z-score),[4],-0.287
same,glycan array binding signal (z-score),[5],-0.3
same,glycan array binding signal (z-score),[6],-0.11
same,glycan array binding signal (z-score),[7],-0.277
same,glycan array binding signal (z-score),[8],-0.329
same,glycan array binding signal (z-score),[9],-0.3
same,glycan array binding signal (z-score),[10],-0.316
same,glycan array binding signal (z-score),[11],-0.324
same,glycan array binding signal (z-score),[12],-0.32
same,glycan array binding signal (z-score),[13],-0.329
same,glycan array binding signal (z-score),[14],0.253
same,glycan array binding signal (z-score),[15],-0.18
same,glycan array binding signal (z-score),[16],-0.079
same,glycan array binding signal (z-score),[17],0.58
same,glycan array binding signal (z-score),[18],0.1
same,glycan array binding signal (z-score),[19],0.523
same,glycan array binding signal (z-score),[20],0.118
same,glycan array binding signal (z-score),[21],0.876
same,glycan array binding signal (z-score),[22],-0.331
same,glycan array binding signal (z-score),[23],-0.261
same,glycan array binding signal (z-score),[24],-0.257
same,glycan array binding signal (z-score),[25],-0.325
same,glycan array binding signal (z-score),[26],-0.23
